Source: the supplement of paper PMC4967469
By IC50 is meant the dose at which the fit gives 50% viability; a limit (>, <) means that the fit lies beyond the doses tested. AUC is the area under the same curve over the 256-fold range up to the top dose, as a fraction: 1 means no effect, lower means more sensitive.

Compound: FC(F)c1nc2ccccc2n1-c1nc(N2CCOCC2)nc(N2CCOCC2)n1 [ZSTK474]
Test: Viability of human cancer cell lines after 72 h of drug (GDSC screen)
Procedure: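 Human cancer cell lines in 384-well plates, medium with 10% serum, drug for 72 h over a 256-fold dose range (nine 2-fold or five 4-fold steps up to the top dose). Adherent lines were fixed and stained with the nucleic acid dye Syto60, suspension lines read with resazurin; signal relative to control wells, capped at 0 and 100%. One two-parameter sigmoid per drug and line, fitted in a mixed model over all curves with the slope shared within a line.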

Cell Line | AUC | IC50 [nM]
IA-LM (large cell lung carcinoma, adherent, top dose 5.12 µM) | 0.895 | > 5120
IGR-1 (melanoma, adherent, top dose 5.12 µM) | 0.877 | 4050
IGR-37 (melanoma, adherent, top dose 5.12 µM) | 0.974 | > 5120
IHH-4 (thyroid, semi-adherent, top dose 5.12 µM) | 0.978 | > 5120
IM-95 (stomach, adherent, top dose 5.12 µM) | 0.58 | 536
IMR-5 (neuroblastoma, adherent, top dose 5.12 µM) | 0.865 | 3390
IPC-298 (melanoma, adherent, top dose 5.12 µM) | 0.857 | 4040
IST-MEL1 (melanoma, adherent, top dose 5.12 µM) | 0.692 | 1240
IST-MES1 (mesothelioma, adherent, top dose 5.12 µM) | 0.938 | > 5120
IST-SL1 (small cell lung carcinoma, semi-adherent, top dose 5.12 µM) | 0.779 | 2160
IST-SL2 (small cell lung carcinoma, suspension, top dose 5.12 µM) | 0.566 | 483
J82 (bladder, adherent, top dose 5.12 µM) | 0.956 | > 5120
JAR (urogenital system, adherent, top dose 5.12 µM) | 0.851 | 3790
JEG-3 (urogenital system, adherent, top dose 5.12 µM) | 0.968 | > 5120
JHH-1 (liver, adherent, top dose 5.12 µM) | 0.468 | 260
JHH-2 (liver, adherent, top dose 5.12 µM) | 0.873 | > 5120
JHH-4 (liver, adherent, top dose 5.12 µM) | 0.786 | 2200
JHH-6 (liver, adherent, top dose 5.12 µM) | 0.912 | > 5120
JHH-7 (liver, adherent, top dose 5.12 µM) | 0.922 | > 5120
JHOS-2 (ovary, adherent, top dose 5.12 µM) | 0.851 | 4980
JHOS-3 (ovary, adherent, top dose 5.12 µM) | 0.84 | 5070
JHU-011 (head and neck, adherent, top dose 5.12 µM) | 0.745 | 1590
JHU-022 (head and neck, adherent, top dose 5.12 µM) | 0.799 | 3250
JIMT-1 (breast, adherent, top dose 5.12 µM) | 0.777 | 2230
JJN-3 (haematopoietic neoplasm, suspension, top dose 5.12 µM) | 0.737 | 1300
JM1 (B-cell lymphoma, suspension, top dose 5.12 µM) | 0.743 | 1400
JSC-1 (B-cell lymphoma, suspension, top dose 5.12 µM) | 0.704 | 1190

Cell Line | AUC | IC50 [nM]
JURL-MK1 (chronic myeloid leukaemia, suspension, top dose 5.12 µM) | 0.776 | 2040
JVM-2 (lymphoid neoplasm, suspension, top dose 5.12 µM) | 0.939 | > 5120
JVM-3 (lymphoid neoplasm, suspension, top dose 5.12 µM) | 0.969 | > 5120
JiyoyeP-2003 (Burkitt lymphoma, suspension, top dose 5.12 µM) | 0.849 | 3160
K2 (melanoma, adherent, top dose 5.12 µM) | 0.849 | > 5120
K5 (thyroid, adherent, top dose 5.12 µM) | 0.653 | 834
KALS-1 (glioma, adherent, top dose 5.12 µM) | 0.744 | 2120
KARPAS-45 (lymphoblastic leukaemia, suspension, top dose 5.12 µM) | 0.197 | 50
KARPAS-299 (anaplastic large cell lymphoma, suspension, top dose 5.12 µM) | 0.889 | 4130
KARPAS-422 (B-cell lymphoma, suspension, top dose 5.12 µM) | 0.896 | > 5120
KARPAS-620 (haematopoietic neoplasm, suspension, top dose 5.12 µM) | 0.297 | 94.5
KASUMI-1 (acute myeloid leukaemia, suspension, top dose 5.12 µM) | 0.184 | 36
KCL-22 (chronic myeloid leukaemia, suspension, top dose 5.12 µM) | 0.687 | 965
KE-37 (lymphoblastic leukaemia, suspension, top dose 5.12 µM) | 0.258 | 80.2
KELLY (neuroblastoma, adherent, top dose 5.12 µM) | 0.836 | 2960
KG-1 (acute myeloid leukaemia, suspension, top dose 5.12 µM) | 0.758 | 1600
KGN (ovary, adherent, top dose 5.12 µM) | 0.452 | 230
KINGS-1 (glioma, adherent, top dose 5.12 µM) | 0.933 | > 5120
KLE (endometrium, adherent, top dose 5.12 µM) | 0.721 | 1950
KM12 (large intestine, adherent, top dose 5.12 µM) | 0.872 | > 5120
KM-H2 (Hodgkin lymphoma, suspension, top dose 5.12 µM) | 0.803 | 2100
KMH-2 (thyroid, adherent, top dose 5.12 µM) | 0.817 | 2470
KMOE-2 (acute myeloid leukaemia, suspension, top dose 5.12 µM) | 0.695 | 1050
KMRC-1 (kidney, adherent, top dose 5.12 µM) | 0.966 | > 5120
KMRC-20 (kidney, adherent, top dose 5.12 µM) | 0.974 | > 5120
KMS-11 (myeloma, suspension, top dose 5.12 µM) | 0.848 | 3000
KMS-12-BM (myeloma, suspension, top dose 5.12 µM) | 0.559 | 451

Cell Line | AUC | IC50 [nM]
KNS-42 (glioma, adherent, top dose 5.12 µM) | 0.879 | > 5120
KNS-81-FD (glioma, adherent, top dose 5.12 µM) | 0.863 | > 5120
KON (head and neck, adherent, top dose 5.12 µM) | 0.968 | > 5120
KOPN-8 (B-cell leukaemia, suspension, top dose 5.12 µM) | 0.75 | 1470
KP-1N (pancreas, adherent, top dose 10.24 µM) | 0.259 | 126
KP-2 (pancreas, adherent, top dose 5.12 µM) | 0.79 | 2490
KP-3 (pancreas, adherent, top dose 5.12 µM) | 0.761 | 2160
KP-4 (pancreas, adherent, top dose 5.12 µM) | 0.643 | 780
KP-N-YN (neuroblastoma, adherent, top dose 5.12 µM) | 0.963 | > 5120
KP-N-YS (neuroblastoma, adherent, top dose 5.12 µM) | 0.897 | > 5120
KS-1 (glioma, adherent, top dose 5.12 µM) | 0.595 | 624
KU812 (chronic myeloid leukaemia, suspension, top dose 5.12 µM) | 0.1 | < 20
KU-19-19 (bladder, adherent, top dose 5.12 µM) | 0.974 | > 5120
KURAMOCHI (ovary, adherent, top dose 5.12 µM) | 0.869 | > 5120
KY821 (leukaemia, suspension, top dose 5.12 µM) | 0.951 | > 5120
KYAE-1 (oesophagus, suspension, top dose 5.12 µM) | 0.312 | 89.2
KYM-1 (rhabdomyosarcoma, adherent, top dose 5.12 µM) | 0.982 | > 5120
KYSE-50 (oesophagus, adherent, top dose 5.12 µM) | 0.44 | 223
KYSE-70 (oesophagus, adherent, top dose 5.12 µM) | 0.908 | > 5120
KYSE-140 (oesophagus, adherent, top dose 5.12 µM) | 0.707 | 1340
KYSE-150 (oesophagus, adherent, top dose 5.12 µM) | 0.924 | > 5120
KYSE-180 (oesophagus, adherent, top dose 5.12 µM) | 0.894 | > 5120
KYSE-220 (oesophagus, adherent, top dose 5.12 µM) | 0.657 | 898
KYSE-270 (oesophagus, adherent, top dose 5.12 µM) | 0.793 | 1960
KYSE-410 (oesophagus, adherent, top dose 5.12 µM) | 0.878 | > 5120
KYSE-450 (oesophagus, adherent, top dose 5.12 µM) | 0.659 | 860
